Reference: PubChem BioAssay AID1768 (National Center for Advancing Translational Sciences (NCATS), 2009)
About 620 (0.23%) of roughly 270,000 compounds were called active. This list was built around the results that the source calls inconclusive (neither active nor inactive); the mix of calls is not that of the screen. Calls come from the whole dose curve; as a rule, active = well fitted inhibition curve with a large enough effect in the polarisation, with a control signal flat (not every such curve was filed as active); inconclusive = small, poorly fitted or top-dose-only effect, or effect the other way, or a change in a side signal; inactive = no such curve, though single readings can be large or run the other way; the % refers to the polarisation. Potencies of inconclusive entries are doubtful fits and often do not repeat. “Side channel” marks fits to a control or component signal instead of the main read-out.
Potency is the fitted concentration of half-maximal effect; tags give direction and shape of the fitted curve or compound fluorescence and quenching.
Throughout, for FP activity change, negative = inhibition: % of control where 0% means no effect.

Each compound was assayed against Menin (Homo sapiens) (UniProt O00255) (assay: qHTS Assay for Inhibitors Targeting the Menin-MLL Interaction in MLL Related Leukemias: Competition With Texas Red Labeled MLL-derived Mutant Peptide). Conditions: fluorescence polarization; FP activity change, negative = inhibition: at 61.6 µM (top of the series).
Sequence of UniProt O00255 (O00255 whole entry, looked up): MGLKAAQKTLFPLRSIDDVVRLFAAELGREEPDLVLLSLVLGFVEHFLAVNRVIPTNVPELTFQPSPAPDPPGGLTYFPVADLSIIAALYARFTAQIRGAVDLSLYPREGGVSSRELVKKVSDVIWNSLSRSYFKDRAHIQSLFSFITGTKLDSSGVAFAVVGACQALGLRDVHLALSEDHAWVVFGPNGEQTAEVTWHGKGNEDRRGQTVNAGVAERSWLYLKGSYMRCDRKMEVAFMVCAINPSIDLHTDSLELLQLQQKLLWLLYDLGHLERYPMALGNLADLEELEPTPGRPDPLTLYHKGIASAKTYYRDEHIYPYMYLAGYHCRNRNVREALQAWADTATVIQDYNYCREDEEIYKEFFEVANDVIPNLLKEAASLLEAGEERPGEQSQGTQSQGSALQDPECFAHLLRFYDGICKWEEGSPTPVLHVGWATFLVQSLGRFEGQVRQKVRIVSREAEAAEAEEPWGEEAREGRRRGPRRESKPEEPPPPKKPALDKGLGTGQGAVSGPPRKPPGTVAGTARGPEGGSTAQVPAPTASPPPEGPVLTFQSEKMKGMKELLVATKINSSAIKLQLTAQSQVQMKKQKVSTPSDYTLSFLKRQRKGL
With `Cc1nc2ccccc2n2c(O)c(CC(=O)O)cc12` the “FP activity change, negative = inhibition” value was inactive: -27.3%. In the case of `CC1CCN(c2ccc(C(=O)O)cc2NS(=O)(=O)c2ccc(Br)cc2)CC1`, the “FP activity change, negative = inhibition” value is reported as inactive: 11.2%. In the case of `Cc1ccccc1OCC(O)CN1CCN(CC(O)COc2ccccc2C)CC1` (stereo not drawn), the Potency is reported as inconclusive: 10 µM [fluorescent, side channel, partial curve]. In the case of `CCc1ccc(-c2cc(C(=O)NCc3ccco3)c3ccccc3n2)s1`, the Potency is reported as inconclusive: 25.1 µM [quencher, side channel, partial curve]. With `Cc1ccc(CNC(=O)C2CCN(S(=O)(=O)c3cccs3)CC2)cc1` the Potency was inconclusive: 39.8 µM [inhibitor, single point]. For `Cc1cc2ccccc2n1CCNC(=O)c1ccccc1`, the Potency was inconclusive: 35.5 µM [fluorescent, side channel, single point]. `O=C(NC(=S)N1CCN(c2ccc(Cl)cc2[N+](=O)[O-])CC1)c1cccs1` was tested, and the Potency was inconclusive: 12.6 µM [quencher, side channel, partial curve]. With `COc1cccc(NC(=O)Nc2cc(C)ccc2OC)c1` the Potency was inconclusive: 8.91 µM [quencher, side channel, partial curve]. `COc1ccc(C(C(=O)NC2CCCCC2)N(C(=O)c2ccco2)c2ccccc2OC)cc1` (stereo not drawn) was tested, and the Potency was inconclusive: 31.6 µM [fluorescent, side channel, partial curve]. In the case of `CCOC(=O)CC(=O)CSCC(=O)Nc1ccc(C)cc1`, the “FP activity change, negative = inhibition” value is reported as inactive: 1.36%. With `CCN=C1S/C(=C\c2cc(OCC)c(O)cc2Br)C(=O)N1CC` the Potency was inconclusive: 39.8 µM [quencher, side channel, single point]. `Clc1ccccc1-c1nc(Nc2ccncc2)c2ccccc2n1` was tested, and the Potency was inconclusive: 12.6 µM [quencher, side channel, partial curve]. In the case of `Cc1ccc(-c2cc(-c3cccc(F)c3)n[nH]2)c(O)c1`, the Potency is reported as inconclusive: 15.8 µM [quencher, side channel, partial curve]. In the case of `COc1ccc2[nH]cc(CCNc3cc(-c4ccccc4C(F)(F)F)ncn3)c2c1`, the “FP activity change, negative = inhibition” value is reported as inactive: 28.5%. With `Clc1ccc(C(CCN2CCCC2)Cc2ccccc2)cc1` (stereo not drawn) the Potency was inconclusive: 14.1 µM [fluorescent, side channel, partial curve]. For `C=CCc1ccccc1OCC(O)CN1CCN(C(=O)OCC)CC1` (stereo not drawn), the Potency was inconclusive: 5.62 µM [fluorescent, side channel, full curve, poor fit]. With `O=C(Nc1ccc(Br)cc1)c1cccc(-n2cnnn2)c1` the Potency was inconclusive: 39.8 µM [inhibitor, single point]. In the case of `Cc1ccccc1Cn1c(Cc2ccccc2)nc2ccccc21`, the Potency is reported as inconclusive: 3.55 µM [fluorescent, side channel, partial curve]. With `O=C(CNCc1ccccn1)Nc1ccc([N+](=O)[O-])cc1C(=O)Nc1ccccc1F` the “FP activity change, negative = inhibition” value was inactive: 8.89%. With `O=C(CSc1ncn[nH]1)Nc1nc(-c2ccccc2)ns1` the Potency was inconclusive: 35.5 µM [quencher, side channel, single point]. For `O=C(CSc1c(Cl)cccc1Cl)N1CCC(c2nc3ccccc3s2)CC1`, the Potency was inconclusive: 4.47 µM [fluorescent, side channel, full curve]. `CC(C)c1ccc(NC(=O)c2ccc(NC3=NC4CS(=O)(=O)CC4S3)cc2)cc1` (stereo not drawn) was tested, and the Potency was inconclusive: 39.8 µM [fluorescent, side channel, single point]. For `C/C(=N\N(c1ccccc1)c1ccccc1)c1ccc(O)cc1`, the Potency was inconclusive: 14.1 µM [quencher, side channel, partial curve]. With `Cc1cc(-n2c(=S)sc3c(=O)n(-c4ccc(F)cc4)c(SCC(=O)O)nc32)ccc1Cl` the Potency was inconclusive: 12.6 µM [quencher, side channel, partial curve]. In the case of `CCC1CCCCN1C(=O)COc1c(Br)cc(Br)c2cccnc12` (stereo not drawn), the Potency is reported as inconclusive: 3.55 µM [fluorescent, side channel, partial curve]. With `CCCCCCC(=O)Nc1nc(C)c(-c2csc(Nc3cccc(OC)c3)n2)s1` the Potency was inconclusive: 8.91 µM [quencher, side channel, partial curve]. With `O=C(CC1C(=O)NCCN1Cc1ccoc1)NCCCn1ncc2ccccc21` (stereo not drawn) the Potency was inconclusive: 10 µM [quencher, side channel, partial curve]. `Cc1cccc(Cc2nnc(CCC(=O)N3CCCC(CN4CCOCC4)C3)o2)c1` (stereo not drawn) was tested, and the Potency was inconclusive: 7.94 µM [fluorescent, side channel, partial curve]. In the case of `CCOC(=O)N1CCC(NC(=O)C2CCN(C(=O)c3cc4oc(C)cc4n3Cc3c(F)cccc3Cl)CC2)CC1`, the Potency is reported as inconclusive: 2.51 µM [fluorescent, side channel, full curve, poor fit]. In the case of `CCc1ccc(N(C(=O)c2csnn2)C(C(=O)NC2CCCCC2)c2cccnc2)cc1` (stereo not drawn), the “FP activity change, negative = inhibition” value is reported as inactive: -8.39%. For `CCc1ccc(C2=NN(C(C)=O)C(c3ccco3)C2)cc1` (stereo not drawn), the Potency was inconclusive: 11.2 µM [fluorescent, side channel, partial curve]. `Cn1c(SCC(=O)NC(=O)NCc2ccco2)nnc1-c1ccccc1` was tested, and the Potency was inconclusive: 5.01 µM [inhibitor, full curve]. For `Cc1cc(C)cc(OCC(O)CN2CCN(Cc3ccc4c(c3)OCO4)CC2)c1` (stereo not drawn), the Potency was inconclusive: 28.2 µM [fluorescent, side channel, partial curve]. For `CCOC(=O)C1CCN(C2=NC(=O)/C(=C/c3ccccc3OC)S2)CC1`, the Potency was inconclusive: 12.6 µM [inhibitor, partial curve, poor fit]. `N#C/C(=C\c1cccc(Oc2ccc(C(F)(F)F)cc2[N+](=O)[O-])c1)c1nc2ccccc2[nH]1` was tested, and the Potency was inconclusive: 17.8 µM [quencher, side channel, partial curve]. For `Cc1ccccc1SC1CCN(Cc2nc(C3CC3)no2)CC1`, the Potency was inconclusive: 3.55 µM [fluorescent, side channel, full curve]. In the case of `O=C(Nc1nc2ccccc2[nH]1)c1ccc(Cl)c(S(=O)(=O)N2CCCC2)c1`, the Potency is reported as inconclusive: 31.6 µM [quencher, side channel, single point]. `COc1ccccc1Oc1ccc(NC(=O)c2ccc(Cl)cc2)cc1` was tested, and the Potency was inconclusive: 31.6 µM [inhibitor, single point]. With `O=C(CSC(=S)N1CCCC1)c1cc(Br)cc(Br)c1O` the Potency was inconclusive: 14.1 µM [quencher, side channel, partial curve]. In the case of `Cc1ccccc1Cn1c(=O)n(Cc2ccco2)c(=O)c2ccccc21`, the Potency is reported as inconclusive: 5.01 µM [inhibitor, single point]. `CC1(C)C2CC=C(/C=N/NC(=S)NCCc3ccccc3)C1C2` (stereo not drawn) was tested, and the Potency was inconclusive: 7.08 µM [inhibitor, full curve, poor fit]. In the case of `Cc1c(Br)cc(C(=O)NC2CCCCC2)c(C)c1C`, the Potency is reported as inconclusive: 2.51 µM [inhibitor, full curve, poor fit]. In the case of `CCN(Cc1nc(-c2cccc(C)c2)no1)C(=O)c1ccc2c(c1)OCO2`, the Potency is reported as inconclusive: 20 µM [inhibitor, partial curve]. `CN1c2ccccc2Sc2cc(N)ccc21` was tested, and the Potency was inconclusive: 28.2 µM [quencher, side channel, partial curve]. For `COCC(=O)N(Cc1cc2cc(OC)ccc2[nH]c1=O)c1ccccc1OC`, the “FP activity change, negative = inhibition” value was inactive: -7.93%. With `CCOc1ccccc1NC(=O)Nc1ccc(Cl)cc1` the Potency was inconclusive: 15.8 µM [quencher, side channel, partial curve]. With `Cc1cccc(NC(=O)C2(C)CC3c4ccccc4C2c2ccccc23)c1` (stereo not drawn) the Potency was inconclusive: 39.8 µM [inhibitor, single point]. For `Cc1nn(C)c(C)c1CN(Cc1nc(-c2ccc(F)cc2F)oc1C)C1CC1`, the Potency was inconclusive: 3.16 µM [fluorescent, full curve, poor fit]. For `Cc1ccc(Cn2c(=S)[nH]c3ccccc3c2=O)cc1`, the Potency was inconclusive: 39.8 µM [fluorescent, side channel, single point]. In the case of `CCn1ccnc1CN(C)Cc1cn(-c2ccc(C)cc2)nc1-c1cccc(C)c1`, the Potency is reported as inconclusive: 2 µM [fluorescent, side channel, full curve]. With `Clc1ccc(CN2C3=NCCCN3c3ccccc32)cc1Cl` the “FP activity change, negative = inhibition” value was inactive: -15.2%. With `CCOc1ccc(N=C2C(=O)Nc3ccc(C)c(Br)c32)cc1` the Potency was inconclusive: 22.4 µM [quencher, side channel, single point]. `COc1cc(CNCc2ccccn2)ccc1OCC(=O)NC1CCCCC1` was tested, and the Potency was inconclusive: 39.8 µM [inhibitor, single point]. With `CN1/C(=C\C=Nc2ccc3ccccc3c2)C(C)(C)c2ccccc21` the Potency was inconclusive: 39.8 µM [fluorescent, single point]. With `CCCCCc1nc2c(c3c1CCCC3)CCCC2` the Potency was inconclusive: 12.6 µM [fluorescent, side channel, partial curve]. With `Cc1ccc(NC(=O)c2sc3nc(N4CCOCC4)c4c(c3c2N)CC(C)(C)OC4)cc1` the Potency was inconclusive: 15.8 µM [quencher, side channel, partial curve]. With `O=C(O)c1ccc(Nc2cc(Cl)c3nonc3c2[N+](=O)[O-])cc1` the Potency was inconclusive: 17.8 µM [quencher, side channel, partial curve]. With `O=C(Nc1cccc2ccccc12)NC(Cc1ccccc1)C(=O)O` (stereo not drawn) the Potency was inconclusive: 31.6 µM [quencher, side channel, partial curve].
